ChEMBL document CHEMBL1201862, “PubChem BioAssay data set” (2004)
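All cell lines were grown in 96-well plates and treated with compound for 48 hours. Here, GI50 denotes the concentration required for 50% inhibition of growth.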 Calls of active or inactive are those of the source. Cut-off read from the data, not from the text of the source: active = GI50 up to about 1.1 µM and inactive = higher.

The compounds below were run on NCI-H322M (assay: NCI-60 cell line screen, 48 h).

| Compound | GI50 |
| --- | --- |
| Cc1cnc2cc(Cl)ccc2c1SCC(=O)O | inactive: > 100 µM |
| COc1cc2cc[n+]3c4cc(OC)c(OC)cc4c(C)cc3c2cc1OC | inactive: > 100 µM |
| COc1ccccc1NC(=O)C(=O)Cc1cnc2ccccc2n1 | inactive: > 100 µM |
| CC(CO)(CO)Nc1ncnc2ccccc12 | inactive: > 100 µM |
| CCOC(=O)CCC(NC(=O)c1ccc(/N=C/c2nc3ccccc3nc2-c2ccccc2)cc1)C(=O)OCC (stereo not given) | inactive: > 100 µM |
| O=C1C2=C(c3ccccc31)C(c1ccc(Cl)cc1)N1C(=O)CCSC1=N2 (stereo not given) | inactive: > 100 µM |
| Cc1nc(N)c(N2CCN(S(=O)(=O)N(Cc3ccccc3)Cc3ccccc3)CC2)c(O)n1 | inactive: 25.4 µM |
| O=C(O[C@H]1[C@@H](O)[C@H](n2cnc3c(Cl)ncnc32)O[C@@H]1COC(c1ccccc1)(c1ccccc1)c1ccccc1)c1ccccc1 | inactive: 15.3 µM |
| NC12c3c4cccc3Oc3cccc(c31)Oc1cccc(c12)O4 | inactive: > 50 µM |
| O=Cc1cc([N+](=O)[O-])no1 | inactive: 47.8 µM |
| CC1(C)O[C@H]2OC(CO[Si](C)(C)C(C)(C)C)C(N=[N+]=[N-])[C@H]2O1 (stereo not given in full) | inactive: 22.9 µM |
| CC1=NN(c2cccc(Cl)c2)C(=N/c2nc3ccccc3s2)/C1=C\c1cccs1 | inactive: 45.9 µM |
| NCCN/C(=N\c1ccccc1)Nc1ccccc1 | inactive: > 100 µM |
| O=C1CCCSCCCC(=O)CCCSCCC1 | inactive: > 100 µM |
| c1ccc([P+](Cc2ccc(C[P+](c3ccccc3)(c3ccccc3)c3ccccc3)s2)(c2ccccc2)c2ccccc2)cc1 | inactive: > 100 µM |
| OCC(O)C(O)c1nn(-c2ccccc2)c2nc3cc(Cl)c(Cl)cc3nc12 (stereo not given) | inactive: 29.2 µM |
| O=C(/C=C/c1csc(-c2ccccc2)n1)NCc1ccc(C(=O)NCc2ccccc2)cc1 | inactive: > 100 µM |
| O=C(NC(=O)c1cn(CCN2CCNCC2)c(=O)[nH]c1=O)OCc1ccccc1 | inactive: > 100 µM |

| Compound | GI50 |
| --- | --- |
| COc1c(C)c(C/C=C(\C)CCCCO)c(OC)c(OC)c1OC | inactive: > 100 µM |
| CCCCCC[C@H]1C(=O)O[C@H](C)[C@H](NC(=O)c2cccc(NC=O)c2OC)C(=O)O[C@@H](C)[C@@H]1OC(=O)C(C)CC.CCCCCC[C@H]1C(=O)O[C@H](C)[C@H](NC(=O)c2cccc(NC=O)c2OC)C(=O)O[C@@H](C)[C@@H]1OC(=O)CC(C)C (stereo not given in full) | inactive: 24.9 µM |
| CCOP(=O)(OCC)C1CCCCOC1=O (stereo not given) | inactive: > 100 µM |
| CCOC(=O)c1[nH]c2ccccc2c1C(=O)C[C@H](NC(=O)C(F)(F)F)C(=O)OC | inactive: > 100 µM |
| COc1cc(/C=C2\NC(=O)C3Cc4c(OC)c(C)c(OC)c(OC)c4C2N3C)c(OC)c(C)c1OC (stereo not given) | inactive: > 100 µM |
| Cc1ccc(C)c2c1NC(=O)/C2=N\Nc1ccccc1[N+](=O)[O-] | inactive: > 100 µM |
| COc1cc(-c2nc3cc(F)ccc3s2)ccc1O | inactive: 38.1 µM |
| CCOc1c(/N=N/c2ccccc2Cl)c(-c2ccccc2)nn1C(=S)S | inactive: 95.5 µM |
| O=C1C(Cl)=C(N2C(=O)CCCC2=O)C(=O)c2ccccc21 | inactive: > 100 µM |
| CC1=NN(c2ccccc2)C2(C1)C(Cl)C(=O)N2c1nc2ccccc2s1 (stereo not given) | inactive: 36.5 µM |
| C[N+](C)(C)CCCSc1nc2ccccc2[nH]1 | inactive: > 100 µM |
| C1=N\c2ccc(cc2)/N=C\c2ccc(cc2)OCc2cccc(n2)COc2ccc/1cc2 | inactive: > 100 µM |
| CCCc1c[nH]c(-c2ccc(-c3cc(CCC)c(C=O)[nH]3)s2)c1 | inactive: 16.2 µM |
| Cc1nc2ccccc2n1C(=O)c1c(F)c(F)c(F)c(F)c1F | inactive: 36.4 µM |
| CCNCCC1(CC)C(=O)NC(=O)NC1=O | inactive: > 100 µM |
| c1ccc2[nH]c(-c3nc4ccccc4o3)nc2c1 | inactive: > 100 µM |
| O=C1c2ccccc2-c2c1c1ccccc1c(=O)n2Cc1ccco1 | inactive: > 100 µM |
